Measurements from PubChem BioAssay AID686978 (National Center for Advancing Translational Sciences (NCATS), 2013).
About 64,000 (15%) of roughly 420,000 compounds were called active. This list was built around the results that the source calls inconclusive (neither active nor inactive); the mix of calls is not that of the screen. Calls come from the whole dose curve; as a rule, active = well fitted inhibition curve with a large enough effect; inconclusive = small, poorly fitted or top-dose-only effect; inactive = flat fitted curve, though single readings scatter. No potency is given beside an inconclusive call; the fits are too rough.

Assay: qHTS for Inhibitors of human tyrosyl-DNA phosphodiesterase 1 (TDP1): qHTS in cells in absence of CPT; note: nearly all actives have a fitted effect of over 55% in size
Settings: DT40 Tdp1-/- hTDP1 cells, no CPT, ATP luminescence, 48 h; series mostly up to 46.2 µM
Summary of the method: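 Cells were dispensed at 400 per well, compounds added by pin tool, plates incubated ≥48 hr at 37 °C, then CellTiter-Glo added for 30 min at room temperature before luminescence reading. Line: DT40 Tdp1-/- complemented with hTDP1; camptothecin omitted.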
Potency is the fitted concentration of half-maximal effect; tags give direction and shape of the fitted curve.

**Q.** Which Potency does the source give for CC1=C[C@H]2Cc3cc(C)cc(C)c3S(=O)(=O)[C@@H]2C=C1 here?
**A.** inconclusive [inhibitor, partial curve, poor fit]

**Q.** Which Potency does the source give for CC(Oc1ccc(Cl)cc1)c1ccnn1S(=O)(=O)c1ccccc1 (stereo not drawn) here?
**A.** inactive

**Q.** Which Potency does the source give for O=C(Nc1cc2c3c(c1)CC(=O)N3CCC2)c1c(F)cccc1F here?
**A.** inactive

**Q.** Which Potency does the source give for CC1CCN(CCOCCOc2ccc(Br)cc2Cl)CC1 here?
**A.** active: 20.6 µM

**Q.** With COc1cc(Cl)c(CN2CCOc3ccc(CN4CCCCC4CO)cc3C2)cc1OC (stereo not drawn) as the compound, how does the Potency read?
**A.** inconclusive [inhibitor, single point]

**Q.** With S=c1[nH]nc(-c2cc(-c3ccsc3)n[nH]2)n1-c1ccccc1 as the compound, how does the Potency read?
**A.** inactive

**Q.** Which Potency does the source give for COc1ccc(CN(C(=O)Cc2c[nH]c3ccccc23)C(C(=O)NC2CCCCC2)c2ccc(C)o2)cc1 (stereo not drawn) here?
**A.** active: 18.4 µM

**Q.** Which Potency does the source give for O=C(Nc1ccc2nccnc2c1)N1CCCCCC1 here?
**A.** inactive

**Q.** For COc1ccc(C2NC(=O)NC(C)=C2C(=O)OC2CCCCC2)cc1 (stereo not drawn), which Potency is on record?
**A.** inconclusive [inhibitor, single point]

**Q.** With O=C(O)c1ccc(NC(=O)c2ccccc2NC(=O)c2cccc(Br)c2)cc1 as the compound, how does the Potency read?
**A.** inactive

**Q.** With Cc1ccc(C(C(=O)Nc2ccc3c(c2)OCO3)N(C)C(=O)/C=C\c2ccc3c(c2)OCO3)cc1 (stereo not drawn) as the compound, how does the Potency read?
**A.** inconclusive [inhibitor, single point]

**Q.** With CC1C(=O)N(Cc2cn(CCC3OCCO3)nn2)CCS(=O)(=O)N1Cc1ccc(-c2ccc(Cl)c(Cl)c2)cc1 (stereo not drawn) as the compound, how does the Potency read?
**A.** active: 6.51 µM

**Q.** For CC1=C(C(=O)N2CCOCC2)CC(CC(=O)NCc2ccco2)C(=O)N1Cc1ccccc1 (stereo not drawn), which Potency is on record?
**A.** inconclusive [inhibitor, full curve]

**Q.** With CCCN(CCC(=O)Nc1cc(OC)cc(OC)c1)CC1CC1 as the compound, how does the Potency read?
**A.** inactive

**Q.** With COc1ccc(CN2CCC(C)(Oc3ccc4c(c3)OCO4)C2)c2ccccc12 (stereo not drawn) as the compound, how does the Potency read?
**A.** inconclusive [inhibitor, single point]

**Q.** Which Potency does the source give for CCOC(=O)c1sc(NC(=O)c2cc3nc(-c4ccc(Br)cc4)cc(C(F)(F)F)n3n2)c(C(=O)OCC)c1C here?
**A.** active: 23.1 µM

**Q.** Which Potency does the source give for CN(C(=O)c1cccc(NC(=O)Cc2ccc(NC(=O)C3CCCN(C(=O)CCc4ccccc4)C3)cc2)c1)C1CC1 (stereo not drawn) here?
**A.** active: 16.4 µM

**Q.** Which Potency does the source give for CCOc1cc(NC(=O)C2CC2)c(OCC)cc1NC(=O)c1ccccn1 here?
**A.** active: 18.4 µM

**Q.** With COc1ccccc1NS(=O)(=O)c1cc(NC(=O)CN2C(=O)NC3(CCCCC3)C2=O)ccc1C as the compound, how does the Potency read?
**A.** inconclusive [inhibitor, partial curve]

**Q.** Which Potency does the source give for CC(=NNC(=O)COc1cccc(C)c1)c1cccnc1 here?
**A.** inactive

**Q.** For COCCn1c(=NC(=O)CCS(=O)(=O)c2ccccc2)sc2ccccc21, which Potency is on record?
**A.** active: 16.4 µM

**Q.** For Cn1c(-n2c(-c3ccco3)nc3ccccc3c2=O)nc2ccccc21, which Potency is on record?
**A.** active: 5.8 µM

**Q.** Which Potency does the source give for O=C1c2ccccc2C(=O)c2c(/C=C/N3CCCCC3)ccnc21 here?
**A.** active: 10.3 µM

**Q.** With c1ccc2c(-n3ccnc3)nc(-c3ccoc3)nc2c1 as the compound, how does the Potency read?
**A.** inconclusive [inhibitor, single point]

**Q.** Which Potency does the source give for CC(=O)Nc1ccc(NC(=O)C(C)OC(=O)CCSc2ccccc2Cl)cc1 (stereo not drawn) here?
**A.** inconclusive [inhibitor, single point]

**Q.** With Cc1cccc(N2CCN(C(=O)Cn3c(=O)c4cccn4c4ccc(F)cc43)CC2)c1C as the compound, how does the Potency read?
**A.** active: 10.3 µM

**Q.** Which Potency does the source give for O=C(OCC(=O)N1CCN(C(=O)c2ccco2)CC1)c1cc(-c2ccco2)nc2ccccc12 here?
**A.** inconclusive [inhibitor, single point]

**Q.** Which Potency does the source give for Cc1cnc(NC(=O)CC2OC(=O)c3ccccc32)s1 (stereo not drawn) here?
**A.** inactive

**Q.** With COc1ccc(Br)cc1CSC(=N)N as the compound, how does the Potency read?
**A.** inconclusive [inhibitor, single point]

**Q.** Which Potency does the source give for O=C(CN1C(=O)NC2(CCCCC2)C1=O)NCC(=O)Nc1ccc(F)c(F)c1 here?
**A.** inactive

**Q.** Which Potency does the source give for O=c1cc(-c2ccccc2)oc2cc(O)ccc12 here?
**A.** inconclusive [inhibitor, single point]

**Q.** With CC(C)CCN1CCN(C2CSCCSC2)CC1CCO (stereo not drawn) as the compound, how does the Potency read?
**A.** inactive

**Q.** For Cc1cccc(CN(C)C[C@H]2OCc3cnnn3CCCC(=O)N([C@@H](C)CO)C[C@@H]2C)c1, which Potency is on record?
**A.** inactive

**Q.** For CC(C)CC(=O)Nc1ccc(Cl)c(-c2nc3ccccc3[nH]2)c1, which Potency is on record?
**A.** inconclusive [inhibitor, single point]

**Q.** For COc1ccc(OC)c(-n2c(-c3cccc(C)c3)n[nH]c2=S)c1, which Potency is on record?
**A.** inconclusive [inhibitor, single point]

**Q.** With COc1ccc(CNCc2ccc([N+](=O)[O-])cc2)cc1OC as the compound, how does the Potency read?
**A.** inactive

**Q.** Which Potency does the source give for Cc1ccc(OCC(=O)Nc2sc3c(c2C#N)CC(C)(C)NC3(C)C)cc1 here?
**A.** inconclusive [inhibitor, single point]

**Q.** For COc1ccccc1-c1cc(C(=O)N/N=C\c2cnn(C)c2C)c2ccccc2n1, which Potency is on record?
**A.** inconclusive [inhibitor, partial curve, poor fit]

**Q.** Which Potency does the source give for O=C(CCN1C(=O)C2C3CCC(C3)C2C1=O)Nc1cccc(Cl)c1 (stereo not drawn) here?
**A.** inactive

**Q.** For CCCC(=O)Nc1nc2ccc(NC(=O)c3cccnc3)cc2s1, which Potency is on record?
**A.** active: 9.2 µM

**Q.** Which Potency does the source give for CC(C)CN(CC(C)C)S(=O)(=O)c1cc([N+](=O)[O-])ccc1N1CCCCCC1 here?
**A.** active: 16.4 µM

**Q.** Which Potency does the source give for CCCCCCCCNC(=O)c1cccnc1SCC(=O)Nc1ccccc1OC here?
**A.** active: 20.6 µM

**Q.** Which Potency does the source give for COc1cc(CN2CCN(C(=O)c3ccc(-c4ccccc4)cc3)CC2)cc(OC)c1OC here?
**A.** active: 25.9 µM

**Q.** Which Potency does the source give for Fc1ccc(NC(=S)Nc2cccc(Cl)c2)cc1 here?
**A.** inconclusive [inhibitor, single point]

**Q.** Which Potency does the source give for CSc1ccc(C(=O)C2CCCN(C(=O)c3ccc4c(c3)OCO4)C2)cc1 (stereo not drawn) here?
**A.** inconclusive [inhibitor, single point]

**Q.** Which Potency does the source give for N#Cc1ccc(NS(=O)(=O)c2ccc(-c3cnc(C4CC4)o3)cc2)cc1 here?
**A.** inconclusive [inhibitor, partial curve, poor fit]

**Q.** With CCOc1ccc(CCNC(=O)C2CCCN(S(=O)(=O)c3c(C)n[nH]c3C)C2)cc1OCC (stereo not drawn) as the compound, how does the Potency read?
**A.** active: 9.2 µM

**Q.** Which Potency does the source give for COc1ccc(OC)c(CNC(=O)CN2C(=O)CCn3nc(-c4cn(C)c5ccccc45)cc32)c1 here?
**A.** inconclusive [inhibitor, single point]
